# Measured values reported in PubChem BioAssay AID485367 (National Center for Advancing Translational Sciences (NCATS), 2010).
# The campaign covered roughly 330,000 compounds. About 560 (0.17%) were called active. Inconclusive means that the source gave no clear call. Such entries were picked first, then a sample of the others. The call rests on the fitted dose curve; in most records, active means well fitted inhibition curve with a large enough effect; inconclusive means small, poorly fitted or top-dose-only effect, or effect the other way; inactive means flat fitted curve, though single readings scatter. No potency is given beside an inconclusive call; the fits are too rough.
# Molecular target: ATP-dependent 6-phosphofructokinase (Trypanosoma brucei brucei) (UniProt O15648)
# Experiment: qHTS Assay to Find Inhibitors of T. brucei phosphofructokinase; further: nearly all actives have a fitted effect of over 60% in size;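 on activity, negative = inhibition: 0% = uninhibited 1x PFK enzyme wells and -100% = no-enzyme wells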
# Settings: T. brucei PFK, ADP-Glo luminescence; activity, negative = inhibition: at 57.5 µM (top of the series)
# Outline: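 In TEA buffer at pH 8.0 with 5 mM MgCl2, enzyme (1.25 nM) converted F6P (0.5 mM) and ATP (0.1 mM) for 45 min at room temperature. ADP product was read by luciferase luminescence.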
# Potency means the concentration at half of the fitted maximal effect; tags describe the fitted curve by direction and shape.
# Sequence of UniProt O15648 (O15648 whole entry, looked up): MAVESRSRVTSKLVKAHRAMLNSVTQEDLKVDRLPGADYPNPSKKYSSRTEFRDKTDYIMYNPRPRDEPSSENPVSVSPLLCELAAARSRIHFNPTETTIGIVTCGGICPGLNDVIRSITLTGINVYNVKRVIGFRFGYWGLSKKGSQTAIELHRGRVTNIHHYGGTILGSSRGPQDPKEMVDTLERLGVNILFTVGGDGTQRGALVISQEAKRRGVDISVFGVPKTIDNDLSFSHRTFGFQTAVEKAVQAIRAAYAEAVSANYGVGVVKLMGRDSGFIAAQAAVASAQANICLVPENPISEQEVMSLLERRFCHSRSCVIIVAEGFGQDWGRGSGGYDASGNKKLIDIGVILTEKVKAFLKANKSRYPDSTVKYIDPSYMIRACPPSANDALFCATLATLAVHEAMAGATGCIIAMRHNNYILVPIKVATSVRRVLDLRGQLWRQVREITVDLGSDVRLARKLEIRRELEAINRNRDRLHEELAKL
Compound,Potency,"activity, negative = inhibition"
O=C(Nc1cccc(O)c1)C(=O)Nc1ccccn1,"inconclusive [falling, single point]",
COC(=O)c1ccc(COc2ccc(C=O)cc2)o1,"inconclusive [falling, single point]",
Cn1c(OCc2ccco2)nc2c1c(=O)n(Cc1ccc(Cl)c(Cl)c1)c(=O)n2C,"inconclusive [falling, single point]",
O=[N+]([O-])c1ccc(CNc2cccc(Cl)c2)s1,active: 7.57 µM,
COc1cccc(/C=C/C(=O)OCC(=O)Nc2ccc3[nH]c(=O)[nH]c3c2)c1OC,"inconclusive [falling, single point]",
CCCCn1nnnc1SCC(=O)Nc1ccc(N(C)C)cc1,,inactive: 2.24%
O=C(O)c1ccccc1C(=O)O,,inactive: -7.39%
Cc1coc2c(C)c3oc(=O)c(CCC(=O)N[C@@H](C)C(=O)N[C@@H](Cc4ccccc4)C(=O)O)c(C)c3cc12,"inconclusive [falling, partial curve]",
O=C1CSC(=S)N1/N=C/c1ccc(O)c(O)c1O,"inconclusive [falling, partial curve]",
CC1(C)CC(=O)C(C(C2=C(O)CC(C)(C)CC2=O)c2ccc([N+](=O)[O-])cc2)C(=O)C1 (stereo not given),"inconclusive [activator, partial curve]",
O=C(c1cc(-c2ccco2)nc2ccccc12)N1CCCC(C(F)(F)F)C1 (stereo not given),"inconclusive [falling, single point]",
O=C1C=CC(=O)N1c1ccc(OC(F)F)cc1,"inconclusive [falling, single point]",
O=C(O)c1cc(O)c2c(c1)C(=O)c1cccc(O)c1C2=O,,inactive: -10.8%
Cc1ccc(OCCNC(=O)c2ccc(COc3ccccc3)o2)cc1,,inactive: 1.89%
Cc1ccc(NC(=O)NCC2CCN(Cc3cccc(Cl)c3)CC2)cc1Cl,"inconclusive [falling, single point]",
CN(C)c1cc(Cl)c2nonc2c1N,"inconclusive [falling, partial curve]",
Cc1cc(C)c2c(=O)n(CC(=O)NCCCN3CCOCC3)sc2n1,active: 8.49 µM,
O=C1/C(=C\c2ccccn2)SC(=S)N1c1ccc(S(=O)(=O)Nc2nccs2)cc1,,inactive: -4.55%
O=C(O)c1cccc(-n2cccc2/C=N/O)c1,active: 21.3 µM,
CC(=O)NC1=NC(=O)/C(=C/c2cn(C(C)=O)nc2-c2ccccc2)S1,"inconclusive [falling, partial curve]",
CC1(C)CC(=O)C2=C(C1)c1c(ccc3ccccc13)NC2c1cc([N+](=O)[O-])cc([N+](=O)[O-])c1O (stereo not given),"inconclusive [falling, single point]",
O=C(OCc1cccc(C(F)(F)F)c1)c1ccc[nH]c1=O,active: 6.01 µM,
Cn1c(SCC(=O)c2ccccc2F)nnc1C1CC1,,inactive: -1.9%
O=C(Nc1ccc(Cl)c(Cl)c1)c1cccc(S(=O)(=O)NCc2cccnc2)c1,,inactive: -17.5%
CN1CCN(C(=O)/C(=C\c2ccccc2)c2ccccc2)CC1,"inconclusive [falling, single point]",

Compound,Potency,"activity, negative = inhibition"
Fc1ccc(C[n+]2csc3ccccc32)cc1,,inactive: -5.9%
c1ccc(-c2cc3c(nn2)CCc2nonc2-3)cc1,"inconclusive [falling, single point]",
COc1cc(C2N(C)C(=O)c3ccccc3N2C)ccc1O (stereo not given),"inconclusive [falling, single point]",
CC(=O)c1c(C)nc(-c2ccc(Cl)cc2)nc1N=CN(C)C,active: 2.69 µM,
CCCC(=O)C1=C(O)C(C(=O)OC)C(C)(C)CC1=Nc1cccc2ccccc12 (stereo not given),,inactive: -2.12%
COCCCNC(=O)[C@H](Cc1c[nH]c2ccccc12)NC(=O)OCc1ccccc1,"inconclusive [falling, single point]",
CN1CCN(c2nc(-c3cc4ccccc4o3)cs2)CC1,,inactive: -2.06%
O=C(O)CSCC(=O)Nc1ccc(-c2nc3ccccc3s2)cc1,"inconclusive [falling, single point]",
Clc1ccc(Cn2ccc3ccccc32)cn1,"inconclusive [falling, single point]",
O=C(CN1CCN(c2ccc(O)cc2)CC1)Nc1ccc(SC(F)F)cc1,"inconclusive [falling, single point]",
COCCN(C(=O)COC(=O)c1cc2c(s1)CCC2)c1c(N)n(Cc2ccccc2)c(=O)[nH]c1=O,active: 3.79 µM,
COc1ccc(N2CCN(C(=O)c3oc4ccccc4c3NC(=O)Cc3cccc(OC)c3)CC2)cc1,,inactive: 1.53%
CSC(=NC#N)N1CCN(c2ccc([N+](=O)[O-])cc2)CC1,,inactive: -32.6%
COc1ccccc1NS(=O)(=O)c1cc(NC(=O)c2sccc2C)ccc1N1CCCC1,"inconclusive [falling, partial curve]",
O=C(COC(=O)Cc1ccc(Cl)c(Cl)c1)NCc1ccco1,"inconclusive [falling, partial curve]",
COc1ccc(Cl)cc1NC(=O)CCS(=O)(=O)c1ccc(Br)cc1,"inconclusive [falling, partial curve]",
COc1ccc(-c2nc3cc(NC(=O)Cc4ccc(OC)c(OC)c4)ccc3o2)cc1,"inconclusive [falling, single point]",
O=C(CCCN1C(=O)/C(=C\c2cccs2)SC1=S)NNC(=O)c1cccnc1,"inconclusive [activator, single point]",
O=C(NCc1cccc(Cl)c1)c1cc(COc2ccc3ncccc3c2)on1,active: 15.1 µM,
Cc1nnc(SCC2=C(C(=O)O)N3C(=O)C(NC(=O)C(C)n4nc(C(F)(F)F)cc4C)C3SC2)s1 (stereo not given),"inconclusive [falling, single point]",
COc1ccc([N+](=O)[O-])cc1CSc1ccccn1,,inactive: -0.537%
CCOC(=O)c1cnc2ccc(C)cc2c1N(C)Cc1ccccc1,,inactive: 11%
O=C(O)C1Nc2c(O)cccc2C2C=CCC12 (stereo not given),"inconclusive [falling, single point]",
O=C1N(c2ccccc2)C2CS(=O)(=O)CC2N1c1ccc(Br)cc1 (stereo not given),"inconclusive [falling, single point]",
Cc1ccc(C(=O)C(C)Oc2cccc(NC(=O)c3ccco3)c2)cc1 (stereo not given),,inactive: 0.652%

Compound,Potency,"activity, negative = inhibition"
O=C(Cn1cnc([N+](=O)[O-])n1)c1ccc(O)c(O)c1,"inconclusive [falling, partial curve]",
C=CC#CC[N+]1(CC#Cc2ccccc2)CCOCC1,"inconclusive [activator, full curve]",
N/C(=N\OC(=O)c1ccncc1)c1cccc([N+](=O)[O-])c1,,inactive: -3.04%
O=c1[nH]c2ccsc2c(=O)n1-c1ccc(F)cc1,"inconclusive [activator, single point]",
COC(=O)CSC1=C(C#N)C(=O)NC2(CCCCC2)S1,"inconclusive [falling, single point]",
C/C(=C1/SC(=S)N(CCC(=O)O)C1=O)c1ccc(O)cc1,"inconclusive [falling, single point]",
CCN(CC)c1ccc2oc(=O)c(C)nc2c1,"inconclusive [falling, single point]",
NNC(=O)c1sccc1OCc1ccc(Cl)cc1Cl,"inconclusive [falling, single point]",
O=C(O)CCc1ccc(-c2cccs2)o1,"inconclusive [activator, single point]",
N#Cc1sc(NCc2ccccc2)nc1Cl,active: 19 µM,
O=C(Cn1ccc([N+](=O)[O-])n1)NCc1cccs1,"inconclusive [falling, single point]",
Cc1[nH]n(-c2ccccc2)c(=O)c1C(C[N+](=O)[O-])c1ccc(F)cc1 (stereo not given),"inconclusive [activator, partial curve]",
COc1cc(C2C3=C(CCCC3=O)Nc3[nH]n(-c4ccccc4)c(=O)c32)ccc1O (stereo not given),,inactive: 0%
Cc1cc(C(=O)NNC(=O)Cc2ccc(Cl)c(Cl)c2)c(C)o1,active: 26.9 µM,
CCOC(=O)c1cccc(N/C=C/C(=O)c2ccc(OC)c(OC)c2)c1,,inactive: -3.4%
O=c1[nH]c2ccsc2c(=O)n1-c1ccc(F)c(Cl)c1,"inconclusive [activator, partial curve]",
COCCCn1c(SCC(=O)Nc2sc3c(c2C#N)CCCC3)nnc1-c1ccncc1,,inactive: 1.05%
O=C(CSc1ccncc1)Nc1ccc(S(=O)(=O)Nc2nccs2)cc1,active: 19 µM,
COc1ccccc1/C=c1\sc2nc(-c3ccco3)nn2c1=O,"inconclusive [falling, single point]",
NC(=O)C1CCN(C(=S)c2ccc(-c3ccc(Br)cc3)o2)CC1,"inconclusive [falling, partial curve]",
CCOc1ccc(C(C)=O)cc1N1C(=O)C2C3C=CC(O3)C2C1=O (stereo not given),"inconclusive [activator, full curve]",
O=C(CCn1c(=O)[nH]c2ccsc2c1=O)N1CCN(c2cccc(Cl)c2)CC1,"inconclusive [falling, single point]",
S=c1nc(-c2cccc(Br)c2)[nH][nH]1,"inconclusive [falling, single point]",
COc1cccc(/C=C2/C(=O)NN(c3ccccc3)C2=O)c1,"inconclusive [activator, single point]",
O=C1/C(=C/c2cccnc2)Oc2cc(OS(=O)(=O)c3ccc(Cl)cc3)ccc21,,inactive: -2.4%
